Experimental data published in the RNAGym collection of RNA variant scans (doi:10.1073/pnas.2313332121).
Variants at the floor of the assay are shown more often than the library holds them.

B1: TPR 5TU (parent)
chain: GGAUCUUCUCGAUCUAACAAAAAAGACAAAUCUGCCACAAAGCUUGAGAGCAUCUUCGGAUGCAGAGGCGGCAGCCUUCGGUGGCGCGAUAGCGCCAACGUUCUCAACUAUGACACGCAAAACGCGUGCUCCGUUGAAUGGAGUUUAUCAUG

Variants of: B1
Assay: polymerase ribozyme fitness, log enrichment relative to wild type (log ratio); higher = more active; in vitro selection for triplet polymerase activity
Procedure, shortened: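 Fitness measures genotype enrichment against wild-type enrichment on a logarithmic scale, with inverse-variance-weighted averaging of replicates. The logarithm is base 2, and genotypes were kept only with ≥10 input reads and ≥1 read per output in Illumina sequencing. The sequenced libraries came from one triplicate in vitro selection round, including frozen incubation at −7 °C, of PCR-built, transcribed mutant libraries of each subunit of a heterodimeric triplet polymerase ribozyme.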

A16G A20C A22C G25A A37U A40C C75U C96U U130G A138U U145G and A17C G58A U102G A120G G128A cannot be ordered by “polymerase ribozyme fitness (log ratio)” value: at most -4.2 for the first, at most -4.2 for the second.

Going from A17G G67C A106C G128U to A16U G81A, the “polymerase ribozyme fitness (log ratio)” value rises from at most -4.2 to -1.95.

First: A16U A24C G48U G81A C95U C96A C123U
Second: A17G C57A A91G C95G A122U
The “polymerase ribozyme fitness (log ratio)” value of the first is lower: at most -4.2 for the first, -4.04 for the second.

A17C A41G G74A C76G C85U A115C U135A G140A and A17G A37C A91G C99A A107G U139G G143U U148C cannot be ordered by “polymerase ribozyme fitness (log ratio)” value: at most -4.2 for the first, at most -4.2 for the second.

Going from A16U A21U U55A C57U G141A to A17C U53G U55A A121G, the “polymerase ribozyme fitness (log ratio)” value rises from at most -4.2 to -1.71.

First: U15G C32A G42U G83U
Second: A17C G81U C85A C95U C105G A115U
The “polymerase ribozyme fitness (log ratio)” value of the first is lower: at most -4.2 for the first, -3.03 for the second.

A16C U31C A37C A40C C95G G100A C114U and A16U A24U C57A G68C C93G A107C U146G cannot be ordered by “polymerase ribozyme fitness (log ratio)” value: at most -4.2 for the first, at most -4.2 for the second.

A16C A29C G42U C54U U55A G92A U145A and A17G A29C A47C C51A U82A G84A cannot be ordered by “polymerase ribozyme fitness (log ratio)” value: at most -4.2 for the first, at most -4.2 for the second.

Compared with A16C C35U A41U C87G, A16G G48U G133U is higher in “polymerase ribozyme fitness (log ratio)” value: at most -4.2 for the first, -3.99 for the second.

A17G G62U G68U C96A C105G U134G and A16G U45A C72U C93G U151A cannot be ordered by “polymerase ribozyme fitness (log ratio)” value: at most -4.2 for the first, at most -4.2 for the second.

First: A16U C18G A21G A22U C51U U53G G68A G81C
Second: A17G C63A C118G A142U
The “polymerase ribozyme fitness (log ratio)” value of the first is lower: at most -4.2 for the first, -2.32 for the second.

A16G A19G U33G C57G G94A C96A and A16U U53C A89C C93G A147C cannot be ordered by “polymerase ribozyme fitness (log ratio)” value: at most -4.2 for the first, at most -4.2 for the second.

A16G A30G A73U C95G G136C and A16U A24U C27U A39U U55A C76A cannot be ordered by “polymerase ribozyme fitness (log ratio)” value: at most -4.2 for the first, at most -4.2 for the second.

U15G G81A A91C C93U A110G and A16U A39G A40C C54U U101G U139C U144C cannot be ordered by “polymerase ribozyme fitness (log ratio)” value: at most -4.2 for the first, at most -4.2 for the second.

A16U G74A G84U U90C C118U A121U and A17C G58C G100C A106U cannot be ordered by “polymerase ribozyme fitness (log ratio)” value: at most -4.2 for the first, at most -4.2 for the second.

A16C A26G A28C C51U G83A G117A A122G G143A and A17C A24G A39U U56A C103G G136U cannot be ordered by “polymerase ribozyme fitness (log ratio)” value: at most -4.2 for the first, at most -4.2 for the second.

A16C A17G C57U G86A G133U and A17G A22U C76U C96U A107U G136U cannot be ordered by “polymerase ribozyme fitness (log ratio)” value: at most -4.2 for the first, at most -4.2 for the second.

Compared with A16U U31A G83A C105U, A17C C69U C76G is lower in “polymerase ribozyme fitness (log ratio)” value: -1.17 for the first, at most -4.2 for the second.

A16G A66C G86U U101C and A16G G81A G83A C93U G128C U134G cannot be ordered by “polymerase ribozyme fitness (log ratio)” value: at most -4.2 for the first, at most -4.2 for the second.

Compared with A17G C95U G141A, U15G A52C U55G A66C C85G C131G U134A is lower in “polymerase ribozyme fitness (log ratio)” value: 0.672 for the first, at most -4.2 for the second.

A17G G34A U56A G59A U78G and A16U A26G G68C C108A U111G C123U C125U U144G cannot be ordered by “polymerase ribozyme fitness (log ratio)” value: at most -4.2 for the first, at most -4.2 for the second.

First: A16U A98U A122G U146G
Second: A16C G92C
The “polymerase ribozyme fitness (log ratio)” value of the first is lower: -3.26 for the first, -1.11 for the second.

A17C A22U U33C G48A C75G C96A A107U and A17G A26U G42C C87G G124A cannot be ordered by “polymerase ribozyme fitness (log ratio)” value: at most -4.2 for the first, at most -4.2 for the second.

A16U A23G U53G C54A C63U and A16C A30U U61A C69A C79A C96G A119G U151C cannot be ordered by “polymerase ribozyme fitness (log ratio)” value: at most -4.2 for the first, at most -4.2 for the second.

A16U A26C G50C G62A and A16G C27U U55C G58A G59U C79G G86C C87A C95U U101G C103G A122U cannot be ordered by “polymerase ribozyme fitness (log ratio)” value: at most -4.2 for the first, at most -4.2 for the second.

Compared with A17C C32U, U15G A49C G65C A120C A142C is lower in “polymerase ribozyme fitness (log ratio)” value: -1.61 for the first, at most -4.2 for the second.

A16U C72G G80C G81U C93G C105A A115U and A16C A20G A24U A40G G48U G58U U77C C85U cannot be ordered by “polymerase ribozyme fitness (log ratio)” value: at most -4.2 for the first, at most -4.2 for the second.

Going from A16G A17G A19C G50A to U15G A41C A47C U55G C76A G81C C87G C96A G126U, the “polymerase ribozyme fitness (log ratio)” value falls from 0.928 to at most -4.2.

First: A16U A39G C76U C99G C105U G124C
Second: A16C U55A A106G
The “polymerase ribozyme fitness (log ratio)” value of the first is lower: at most -4.2 for the first, -1.85 for the second.

A17G C18A A19C A64U G70C C125G and U15G G50C C95A C99U A120U cannot be ordered by “polymerase ribozyme fitness (log ratio)” value: at most -4.2 for the first, at most -4.2 for the second.

A17C C36A G84A G92A C114A and A17C G25C C38A A49U U56G G92C U135C cannot be ordered by “polymerase ribozyme fitness (log ratio)” value: at most -4.2 for the first, at most -4.2 for the second.

Compared with A16U A39C A49C C96U C125U, A16U U61G G81A is higher in “polymerase ribozyme fitness (log ratio)” value: at most -4.2 for the first, -1.91 for the second.

A17G A20U C57G G84U C93A C96G A119U G141A and A17G C87A U135A U151A cannot be ordered by “polymerase ribozyme fitness (log ratio)” value: at most -4.2 for the first, at most -4.2 for the second.

A16G A37C G46A G50C C87A G92A A138C A147U and A17C A29U U145A cannot be ordered by “polymerase ribozyme fitness (log ratio)” value: at most -4.2 for the first, at most -4.2 for the second.

First: A17U A19G C36U G42C G50A A73U A147C
Second: U15G C57A G86U A122G
The “polymerase ribozyme fitness (log ratio)” value of the first is lower: at most -4.2 for the first, -1.4 for the second.

Going from U15G U82C G94A to U15G C18U U56C G83A C87U, the “polymerase ribozyme fitness (log ratio)” value falls from -1.01 to -1.58.

A16C C38U A64G G94U C99U A107U C118G A142C U144C and A17G G70A C85G cannot be ordered by “polymerase ribozyme fitness (log ratio)” value: at most -4.2 for the first, at most -4.2 for the second.

Going from A16C A19U G25U C54U G94A A115U C129A U144A to A16C A73G G92A, the “polymerase ribozyme fitness (log ratio)” value rises from at most -4.2 to -3.3.

A17G A26G C85U U102G C103A A137G and A17G A21G G48C C57U C93A U101G C129U C132U G140A cannot be ordered by “polymerase ribozyme fitness (log ratio)” value: at most -4.2 for the first, at most -4.2 for the second.

U15G C32A G70C G83C A107G C129U U139G and U15G G50U U61A C93G C105U A107G cannot be ordered by “polymerase ribozyme fitness (log ratio)” value: at most -4.2 for the first, at most -4.2 for the second.

A17C C18G A26U G42A C51A C85U C108U and U15G A30U A52C C87G cannot be ordered by “polymerase ribozyme fitness (log ratio)” value: at most -4.2 for the first, at most -4.2 for the second.

Compared with A16G A40U G74A A98G A107G G128U, U15G C51A C93A G124U U145A is higher in “polymerase ribozyme fitness (log ratio)” value: at most -4.2 for the first, -3.28 for the second.
